Data published in publication PMC12224983, “Isoquercitrin Alleviates Diabetic Nephropathy by Inhibiting STAT3 Phosphorylation and Dimerization” (Advanced Science, 2025).

Biological target: signal transducer and activator of transcription 3 (STAT3) (human (endogenous in 293T)) (UniProt P40763)
Experiment: cross-linking; 293T cells treated with 5, 10, 20 umol/L isoquercitrin or 0.1% DMSO for 24 h; nondenaturing lysate at 12 mg/mL; 5 mM DSS, 4 °C, 1 h; stopped with Tris pH 7.5; SDS-PAGE and Western blot for STAT3 dimers and monomers

**Q.** Which stoichiometry N does the source give for “signal transducer and activator of transcription 3 (STAT3) (a stretch of the chain, sequence not shown) (natural protein; other documents disagree on this pair)” here?
**A.** Its stoichiometry N is 2.
